Assay results: paper PMC4336329 (PLoS ONE, 2015)
Screen size: about 310,000 compounds; about 14,000 (4.5%) showed an effect of 50% or more. The effect is printed as a negative number. This is one part of the list.

The compounds below were run against human ether-à-go-go-related gene (hERG) potassium channel (human, UniProt Q12809) (assay: primary screen, population patch clamp on CHO cells stably expressing hERG).
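Note: peak tail current of the secondary pulse compared with the same well before compound.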

Chain of human ether-à-go-go-related gene (hERG) potassium channel (Q12809 whole entry, looked up): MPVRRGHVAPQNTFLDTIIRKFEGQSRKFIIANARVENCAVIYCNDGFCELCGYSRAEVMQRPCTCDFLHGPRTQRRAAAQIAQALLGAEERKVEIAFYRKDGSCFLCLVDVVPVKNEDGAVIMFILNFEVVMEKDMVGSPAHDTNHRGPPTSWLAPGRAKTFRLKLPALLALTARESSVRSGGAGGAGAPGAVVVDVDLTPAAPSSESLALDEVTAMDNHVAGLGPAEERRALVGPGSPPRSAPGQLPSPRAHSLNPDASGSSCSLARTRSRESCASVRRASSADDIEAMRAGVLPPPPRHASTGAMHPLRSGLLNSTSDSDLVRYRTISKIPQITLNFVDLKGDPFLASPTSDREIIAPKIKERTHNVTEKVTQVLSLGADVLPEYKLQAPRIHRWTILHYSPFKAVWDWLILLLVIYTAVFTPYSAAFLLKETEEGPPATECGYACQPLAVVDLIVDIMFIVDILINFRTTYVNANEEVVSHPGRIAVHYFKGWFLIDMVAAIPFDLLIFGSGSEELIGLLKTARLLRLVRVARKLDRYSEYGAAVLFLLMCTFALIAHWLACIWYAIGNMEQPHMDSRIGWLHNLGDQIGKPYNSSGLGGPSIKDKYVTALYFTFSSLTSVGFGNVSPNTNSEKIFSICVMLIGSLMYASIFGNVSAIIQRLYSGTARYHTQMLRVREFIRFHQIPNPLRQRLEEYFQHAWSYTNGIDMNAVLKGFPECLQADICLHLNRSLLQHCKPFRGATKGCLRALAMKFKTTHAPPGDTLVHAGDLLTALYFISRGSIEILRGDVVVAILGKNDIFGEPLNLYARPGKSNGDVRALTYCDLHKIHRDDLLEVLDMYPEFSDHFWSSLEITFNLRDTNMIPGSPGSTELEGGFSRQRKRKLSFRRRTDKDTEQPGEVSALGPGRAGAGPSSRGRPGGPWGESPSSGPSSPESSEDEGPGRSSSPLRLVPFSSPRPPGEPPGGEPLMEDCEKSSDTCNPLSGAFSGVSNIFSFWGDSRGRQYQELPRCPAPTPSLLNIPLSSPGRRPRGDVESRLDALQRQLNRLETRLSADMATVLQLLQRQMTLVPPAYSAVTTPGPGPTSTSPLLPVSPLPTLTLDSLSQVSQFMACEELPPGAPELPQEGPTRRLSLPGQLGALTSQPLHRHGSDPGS

| SMILES | hERG current change (%, negative = inhibition) at 10uM [%] |
| --- | --- |
| CCOC(=O)c1cccc(NC(=O)c2cccnc2)c1 | -8.41 |
| Cl.NC(CCC(=O)O)C(=O)O (stereo not drawn) | 18.8 |
| O=C(c1cc(-c2cccc(Cl)c2)on1)N1CCOCC1 | 1.33 |
| O=C(CCCN1C(=O)/C(=C/c2ccccc2Cl)SC1=S)NNC(=O)c1cccnc1 | -10.7 |
| O=C(Nc1cc(Cl)ccc1O)C1CC(c2ccccc2Cl)=NO1 (stereo not drawn) | 20.3 |
| Cc1ccc(S(=O)(=O)NCCCn2ccnc2)cc1 | 5.87 |
| O=C(NCC1CCN(S(=O)(=O)c2ccccc2)CC1)Nc1ccccc1 | 11.1 |
| COc1ccc(-n2nc(C(=O)NCC(=O)NCC3COc4ccccc4O3)c3ccccc3c2=O)c(OC)c1 (stereo not drawn) | -34.3 |
| COc1ccc(NC(=O)COC(=O)c2c3c(nc4ccccc24)CCCC3)cc1Cl | 9.73 |
| COCCSc1nnc(NC(=O)C2CCCO2)s1 (stereo not drawn) | 8.75 |
| Cc1[nH][nH]c(=O)c1[C@@H](c1ccccc1[N+](=O)[O-])C(C#N)C#N | 7.28 |
| Cc1cc2cc(CNC(=O)c3ccc(Br)o3)ccc2[nH]1 | -14 |
| CN(C)CCN(C(=O)c1ccc2ccccc2c1)c1nc2cc3c(cc2s1)OCCO3.Cl | 7.59 |
| O=C(NCc1ccc(F)cc1)C1CCCN(S(=O)(=O)c2cccc3nsnc23)C1 (stereo not drawn) | 11.2 |
| O=C(CCCn1c(=O)oc2ccccc21)NC1CCCCCC1 | 1.07 |
| Cn1c(SCC(=O)NCc2cccs2)nnc1-c1ccncc1 | 9.54 |
| CC(=O)NCCCc1nc2ccccc2n1Cc1ccccc1C | -3.63 |
| COc1ccc2c(c1)c(CC(=O)OCC(=O)N(C)C)c(C)n2C(=O)c1ccc(Cl)cc1 | -22.5 |
| COc1ccc(C(=O)NNC(=O)c2ccc(S(=O)(=O)N3CC(C)OC(C)C3)cc2)cc1 (stereo not drawn) | 17.8 |

| SMILES | hERG current change (%, negative = inhibition) at 10uM [%] |
| --- | --- |
| COc1cc(NC(=S)Nc2cccnc2)cc(OC)c1OC | 15.6 |
| CC(C)c1ccc(/C=C/C(=O)N2CCOCC2)cc1 | 7.48 |
| Cc1ccc(C2CC(c3ccccc3Cl)n3nc(N)nc3N2)cc1 (stereo not drawn) | 2.3 |
| COc1ccc(CCN=CC2=C(O)CC(C)(C)CC2=O)cc1 | 16.6 |
| Nc1nc(SCC(=O)Nc2ccc(Cl)c(S(=O)(=O)N3CCOCC3)c2)n[nH]1 | 0.0508 |
| O=[N+]([O-])c1ccc(CN2CCN(Cc3c[nH]c4ccccc34)CC2)cc1 | -77.8 |
| Cc1[nH]n(-c2ccccc2)c(=O)c1CCO | 13.7 |
| O=C1c2ccccc2NC(c2ccc3c(c2)OCO3)N1O (stereo not drawn) | 16.1 |
| COC(=O)CSc1nnc(CNC(=O)c2ccc(S(=O)(=O)N3CCOCC3)cc2)n1C | 23.7 |
| COc1ccccc1CCC(=O)Nc1ccc2c(c1)CN(CCCn1cccn1)CC2 | -29.6 |
| Cc1ccc(OCCSc2nnc(-c3cccs3)n2C)cc1 | -37 |
| O=C(CSc1nnc(-c2ccncc2)n1-c1ccc(F)cc1)NC(=O)NCc1ccco1 | -30.9 |
| COc1ccc(/C=C/C(=O)c2ccc(O)cc2)cc1CN1CCOCC1 | -11.3 |
| Cc1cc(N2CCCC2)nc(SCC(=O)c2ccccc2)n1 | 9.08 |
| COc1ccc(Oc2nc3c(c(=O)n(C)c(=O)n3C)n2Cc2cccc(OC)c2)cc1 | -1.66 |
| Cc1cccc2c1Sc1ccccc1CC2=O | 0.0655 |
| COc1ccc(CN2CCN(C(=O)Cc3ccccc3)CC2)c(OC)c1 | -31.5 |
| Cc1cc(C)c2cc(C#N)c(SCC(=O)NCc3ccco3)nc2c1 | 5.93 |
| CCN(CC(=O)NCc1cccs1)S(=O)(=O)c1ccccc1Cl | -11.3 |

| SMILES | hERG current change (%, negative = inhibition) at 10uM [%] |
| --- | --- |
| Cc1nc(-c2ccccn2)sc1C(=O)Nc1ccc(Cl)c(Cl)c1 | -13.4 |
| Brc1ccc(-c2csc(NC3=NCCCCC3)n2)cc1 | -3.95 |
| COc1ccc(CNCc2cc(Cl)ccc2O)cc1.Cl | -24.9 |
| COc1ccc(OC)c(C2CC(=O)N3CN(c4ccccc4)CSC3=C2C#N)c1 (stereo not drawn) | 9.38 |
| COC(=O)c1ccc(Cn2c(O)c(N=O)c3ccccc32)o1 | 2.32 |
| CCNc1nc(Oc2ccc(C(=O)OC)cc2)nc(N2CCOCC2)n1 | -0.413 |
| O=C(c1ccccc1Nc1ccc(SC(F)F)cc1)N1CCCCCC1 | 8.04 |
| CN(C(=O)CN1CCN(c2ccc([N+](=O)[O-])cn2)CC1)c1ccccc1 | -49.1 |
| CCCc1nnc(-c2ccc(OC)cc2)o1 | 1.84 |
| O=C(NCCn1cccn1)C1CCC(=O)N(CCc2ccc(Cl)cc2)C1 (stereo not drawn) | 5.51 |
| CC(=O)c1ccc(OCCCN2CCCCC2)cc1.O=C(O)C(=O)O | -22.2 |
| O=C1/C(=C\c2cccnc2)SC(=S)N1C1CCS(=O)(=O)C1 (stereo not drawn) | -1.96 |
| CCn1c(/C=C/Nc2ccccc2)[n+](CC)c2ccc(C(=O)OCC(F)(F)F)cc21.[I-] | -81.6 |
| O=C1CCc2ccccc2N1Cc1ccccc1 | -8.95 |
| CCCOc1ccc(N2C(=O)CC(N3CCC(O)(c4cccc(C(F)(F)F)c4)CC3)C2=O)cc1 (stereo not drawn) | -21.9 |
| NC(=O)N/N=C/c1ccc(OCc2cccc(Cl)c2)cc1 | 26.8 |
| O=[N+]([O-])c1ccc(N2CCOCC2)cc1NC(c1ccccc1)c1ccccc1 | 1.88 |
| CC1Cc2ccccc2N1C(=O)Cn1c(=O)oc2cc(S(=O)(=O)NC3CCCC3)ccc21 (stereo not drawn) | -13.5 |
| O=C(CCc1ccccc1)NCC(c1ccco1)N1CCc2ccccc21 (stereo not drawn) | -56.2 |
